Our source for the binding signal (log2 normalized intensity) values is paper PMC10726135.

The other results are listed elsewhere or left out. At the low end of the ranking, values are background and their order means little. Measured with an extract: partners may take part in the binding.

For this test, the target named is T1, HNF4alpha2 (COS-7 nuclear extract) (UniProt P41235).
T1 sequence: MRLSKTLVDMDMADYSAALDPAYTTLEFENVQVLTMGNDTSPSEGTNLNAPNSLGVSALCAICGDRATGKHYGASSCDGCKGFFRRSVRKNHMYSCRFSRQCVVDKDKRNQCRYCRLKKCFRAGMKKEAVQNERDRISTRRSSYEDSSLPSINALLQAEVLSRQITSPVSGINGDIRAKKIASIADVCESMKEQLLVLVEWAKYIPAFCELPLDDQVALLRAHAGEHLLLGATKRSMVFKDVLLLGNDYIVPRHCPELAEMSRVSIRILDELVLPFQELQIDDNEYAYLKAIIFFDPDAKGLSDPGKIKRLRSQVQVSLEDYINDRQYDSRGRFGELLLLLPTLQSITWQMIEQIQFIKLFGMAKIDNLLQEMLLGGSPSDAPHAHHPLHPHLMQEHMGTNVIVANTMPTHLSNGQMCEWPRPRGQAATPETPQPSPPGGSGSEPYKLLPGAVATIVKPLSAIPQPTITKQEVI
Description: protein-binding microarray. Conditions: COS-7 nuclear extract on double-stranded Agilent 4x180k PBM; binding buffer, salt, pH and temperature not given; high values mean tight binding; double strand, one strand shown; sequences stand for … in …GCCTAGGGAGATTAGAGTATCGGTCGA
For AAGATTCCTGCTCTAATGTTCCTTATCAGA, the binding signal (log2 normalized intensity) is -1.23.

As for CGCCGAGCAGGCACCCCGGGAGCGCCGAGC, the binding signal (log2 normalized intensity) is -1.09.

As for TTCAGAGGCAGGGACTGAGGAATCTGGCTG, the binding signal (log2 normalized intensity) is -1.15.

With ACCAGAGGCTGAAGTGAAGTTACAAAGGTC, the binding signal (log2 normalized intensity) was 5.21.

On to GGGCGAGAGAGTTCTATGGGATGACCTTTG, for which the binding signal (log2 normalized intensity) was 6.25.

With AGAAAGAAGAGACAGCTGGGCCCTGCCTGA, the binding signal (log2 normalized intensity) is -1.23.

GGCATTCTTAACAAAACCTGTTTAGGATTA: the binding signal (log2 normalized intensity) came to 0.363.

Take CCAGGCTGAAGTGGCCCAAGATGGAGATGA: the binding signal (log2 normalized intensity) was -1.18.

As to TCAAAGGGCTTAATCTTTCCTGCCTGCCGG, the binding signal (log2 normalized intensity) was -0.693.

For ATTGTGATGTGTGCGTTCATCTCACAGAGT, the binding signal (log2 normalized intensity) turned out to be 1.15.

As to GATTGCAACCAAGTCCATCTGTATTGCCTC, the binding signal (log2 normalized intensity) is -0.881.

In the case of CTGTGAAGCACATCCTGTTCTAGCTCGGGG, the binding signal (log2 normalized intensity) turned out to be 0.174.

For TTTCTATGTGACCTTCACCCTGCTGTAAAT, the binding signal (log2 normalized intensity) came out at 3.71.

With GTCCTTAAGATCCAAAGGAGTGGTCCTGCT, the binding signal (log2 normalized intensity) was -1.17.

GATCTAATGCACCCAGAACCCCCAGGTCAC: the binding signal (log2 normalized intensity) stood at 4.94.

In the case of ACCTGTTCAGCCAGATTCTCTCACTGCTCT, the binding signal (log2 normalized intensity) is -1.07.

TGGACCACGTGGCTAGATTGCAACCAAGTC: the binding signal (log2 normalized intensity) was -0.749.

With GGAACTATTGGATTCCCCAATGCAGTACTA, the binding signal (log2 normalized intensity) stood at 0.426.

On to TGCATTCCTGTCCACCCTGAAAGAGAGGAG, for which the binding signal (log2 normalized intensity) is -1.03.

Consider TCTCGGCCTTAAGAGTCAAAGGGCAAAGGA, for which the binding signal (log2 normalized intensity) amounted to 2.94.

Consider TGGGATGGAACAAGGTCCCATGCACTGGCC, for which the binding signal (log2 normalized intensity) is -1.02.

For the sequence GCAGCTTGGGAGCAATTTAGCAGCACCATC, the binding signal (log2 normalized intensity) was -1.16.

Consider GGTCAAAGTACATCCCCTAAAACATCAAAT, for which the binding signal (log2 normalized intensity) amounted to 2.98.

As to ACTGAACATACAGGGTCTAGCAGTGCAGCG, the binding signal (log2 normalized intensity) was -1.18.

For the sequence CAGCCAGAGGCCTTATCTGGCCGCCTAATC, the binding signal (log2 normalized intensity) was -1.04.

As for TAAGGATGCGGACTCCTCCCTCAGCCTGAA, the binding signal (log2 normalized intensity) is -1.12.

As to GAGTAAAGGTCACTCTTGCTATGCAAACAG, the binding signal (log2 normalized intensity) came to 2.79.

Consider GCCGCGCGGCTTCAGAGGCCAGCAGTGCTT, for which the binding signal (log2 normalized intensity) is -1.13.

Take AGATTTGCAGCTCAAAGTGCTTTTCAATCT: the binding signal (log2 normalized intensity) is -1.1.

With ATATCAGGTATTGCCCAGTATTGATGTGAG, the binding signal (log2 normalized intensity) was 1.54.

As to CTCTAGGGTAGATAAGGATGGATCAAAGGA, the binding signal (log2 normalized intensity) was -0.461.

Consider GGCTAGACTTTAACCCCCTTGTCTTCCTCA, for which the binding signal (log2 normalized intensity) worked out at 3.56.

On to AAAAGGATGCTAGGTTTGTGAGTCCAAAGG, for which the binding signal (log2 normalized intensity) was 4.16.

Regarding CAGTCTCTTGAAATCCCAAGCAGTGATATT, the binding signal (log2 normalized intensity) was -0.325.

Regarding GACCCTTGGCCTCTACAGCTACTCCAGCTG, the binding signal (log2 normalized intensity) came to 3.05.

Take ACTATTATTAGAGTCCCTTTTTTAGACAAG: the binding signal (log2 normalized intensity) was -0.0501.

With ACTCGTGGCATTTTTGCCCCTGCCCTAGAG, the binding signal (log2 normalized intensity) was 2.1.

With CGGGCGGTCGGAGTCCACGTCCTCCCCCAG, the binding signal (log2 normalized intensity) came out at 3.43.

For the sequence GAACCTCCCTCCCCATCTCCCCAGACACTC, the binding signal (log2 normalized intensity) came to 5.29.

TAATAACACTCCCATCTGCCATCAGTATCC: the binding signal (log2 normalized intensity) is -1.

Take AGCGCTTATCTGGAAACTATTCCTTTGTTT: the binding signal (log2 normalized intensity) was -1.14.

Turning to GCAAACAGAGATAGTTTGACTTTCTCTCTT, the binding signal (log2 normalized intensity) was -1.1.

Consider GGGGGAAGTGTGGTCAAGGGTCAGTTTCTG, for which the binding signal (log2 normalized intensity) turned out to be 3.9.

On to CCTCTGTCTCTCAGGCACAGCTCGACCTTT, for which the binding signal (log2 normalized intensity) turned out to be 5.94.

On to TGAAGACCTGTACAGGGACTGTGTCAACAA, for which the binding signal (log2 normalized intensity) is -1.08.

Regarding CGAGTTCCCTCGATTATTTCAGCCAGGGCT, the binding signal (log2 normalized intensity) is -1.11.

Take GCCCTTTGTCCTATGACTCTCTCAACACTG: the binding signal (log2 normalized intensity) is 2.98.

In the case of TGGACTCCTGTTTGAACAAACCAGCTTTGA, the binding signal (log2 normalized intensity) was -1.15.

For AGAAGTTGGACTTTGTACATTCCAAATACG, the binding signal (log2 normalized intensity) was determined as 6.88.

With TTATGGCTGGTTTGGTCTTTTATCTAGACC, the binding signal (log2 normalized intensity) amounted to 1.5.

Regarding CTTTAGGAGAAGGAAAAAAATAGGAGACTG, the binding signal (log2 normalized intensity) was -1.05.

Regarding CGCCCTCAGTGTTTTCACTGCTGGGTTTCT, the binding signal (log2 normalized intensity) was 0.938.

In the case of CGCCGGAGAATTAAACTGCCGCGCCACTGC, the binding signal (log2 normalized intensity) is -1.19.

As for TTTTGCTCTGATCCTAGTCTTTGCCCCACT, the binding signal (log2 normalized intensity) amounted to 3.81.

With CCCCTATTAACCAAAGCTACACAGATAAGC, the binding signal (log2 normalized intensity) was -1.26.

With GTTCGGGGGACGGAGAGCAGGGCGTGGACT, the binding signal (log2 normalized intensity) stood at 0.936.

As for ACAAGTTATTACCGTGATGTTCGTTTGGAT, the binding signal (log2 normalized intensity) was found to be 1.38.

As to TATGGCCGGCCCCTGGAATGCTGAGGGGGG, the binding signal (log2 normalized intensity) was -1.17.

For AAGACATTCCAAGAAGAGCCAATAGTACAC, the binding signal (log2 normalized intensity) is -0.651.

For the sequence ATTACATAGGAGGCTGCCTCTCTGTGCTGG, the binding signal (log2 normalized intensity) was -1.14.

As for GAAAATGTCGTTTTCCCGGTTTGTTCCATG, the binding signal (log2 normalized intensity) was determined as 1.81.

On to GGTTTTACCCTGGGAATGGAGAGAGAGAGA, for which the binding signal (log2 normalized intensity) was -0.697.

Turning to TAGCTGCTAGAGAAAAAGAAAAGCCTTGTG, the binding signal (log2 normalized intensity) is -1.08.

Regarding AAATGTACTGGATATAGCCAGATGTCCTTT, the binding signal (log2 normalized intensity) came out at 1.79.

In the case of ATTGGCTTGGCTGTGTCCCTTGACCAAAGG, the binding signal (log2 normalized intensity) stood at 2.07.

Regarding AATACCTGCCGCGCGGGGCGCCTCCCGGAG, the binding signal (log2 normalized intensity) is -1.14.

As for TGGGAGACATTCCTTCAGCGTGAACTTTGA, the binding signal (log2 normalized intensity) came to 6.72.

On to CAAATGACAGAAGCAGGACTTAAACACCAG, for which the binding signal (log2 normalized intensity) was -1.17.

As to GGCTTGGCAGTCTGGTGCCAAGGAGCCTCT, the binding signal (log2 normalized intensity) is -0.449.

With TTATCTCCCCAGCTTACAATTCCAATGAGA, the binding signal (log2 normalized intensity) is 0.806.

As for GCCACACTGGTTCCTGCACCCGGGCAGCCT, the binding signal (log2 normalized intensity) was -1.13.

For CTTTCCGTACTTTTCATCTGATCAGTGCCC, the binding signal (log2 normalized intensity) amounted to 2.37.

With CCAGCGAGGTTATTTCACCCCAGCAAACAG, the binding signal (log2 normalized intensity) came to 0.674.
